In article PMC12040169 (PLOS Biology, 2025):
The other results are listed elsewhere or left out.

System: T1, C. trachomatis L2/434/Bu expressing GFP (CTL2-GFP)
T1 construct: L2/434/Bu GFP intracellular growth in HeLa cells
Parameters: species or system HeLa; C. trachomatis total inclusion area by high-content imaging, normalised to DMSO
Details: total inclusion area; 28.5 h, 10 µM; inhibitor
Method in brief: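 Imaging read-out: GFP inclusions and Hoechst nuclei captured by high-content imaging after fixation. Inclusion area/number = chlamydial growth; nuclei count = host cell viability. MIC calculated per earlier method.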

| Structure (SMILES) | % of control remaining |
| --- | --- |
| Cc1cccnc1Nc1nc(-c2sc(N)nc2C)cs1 [CBK267147] | 124.774 |
| O=C(Cn1cccc(C(=O)NCc2ccccc2)c1=O)Nc1cc(F)ccc1N1CCCC1 [CBK286041] | 109.395 |
| C#CCNS(=O)(=O)c1cccc(C(=O)NCC2CCCN(C(C)C)C2)c1 (stereo not shown) [CBK305981] | 53.6614 |
| CC(C)CC1CC(=O)Nc2c1c(=O)[nH]n2C(C)C (stereo not shown) [CBK287924] | 66.9361 |
| Cn1ncnc1CNc1ccc(S(=O)(=O)N2CCCCCC2)cc1 [CBK305278] | 62.4131 |
| COc1cc(C(=O)c2ccc(Cl)cc2)cc(Br)c1OCCN1CCOCC1 [CBK010131C] | 1.866 |
| COc1cc(C)nc(NC(=O)COc2ccc(Cl)cc2C)n1 [CBK266681] | 112.444 |
| N#Cc1ccc(C(=O)Nc2ccc(N3CCNCC3)nc2)cc1 [CBK029435T] | 95.3915 |
| O=S(=O)(NCCN1CCOCC1)c1cc(Cl)ccc1Cl [CBK261757] | 90.8145 |
| O=S(=O)(NCCSCc1c(Cl)cccc1Cl)c1ccc(Cl)cc1 [CBK265304] | 96.6749 |
| CC(C)(C)c1ccc(OCc2nnc(S)n2N)cc1 [CBK268421] | 96.5387 |
| COc1ccc(C=CC(=O)ONC(=O)c2ccc(OC(F)F)cc2)cc1OC [CBK296098] | 104.202 |
| C=C(C)Cn1c(SCC(C)C)nnc1-c1ccccc1F [CBK200077] | 95.603 |
| Cc1cc(C)n(C(=O)CCC(=O)Nc2cccc(Cl)c2C)n1 [CBK263851] | 77.3816 |
| CC(C)c1nsc(NS(=O)(=O)c2cc(C(F)(F)F)cc(C(F)(F)F)c2)n1 [CBK051263] | 122.374 |
| Cc1cccn2cc(CCNC(=O)N[C@H](C)C(=O)N(C)C)nc12 [CBK304617] | 72.1115 |
| CCOc1ncccc1CNc1ncnc2c1cnn2CCO [CBK305964] | 79.6667 |
| COCCC(=O)N1C2CCC(C2)[C@@H]1COc1ccc(F)cc1 (stereo partly shown) [CBK284604] | 98.3707 |
| CC(=O)NC(C)(COc1nonc1C)COc1nonc1C [CBK265955] | 82.386 |
| O=C(CN1CCN(Cc2ccccc2)CC1)Nc1ccccc1Oc1ccccc1 [CBK074782] | 90.2117 |
| O=C1NCC2(CCN(C(=O)c3cccs3)CC2)Oc2ccccc21 [CBK282917] | 109.977 |
| COc1ccc(-c2cnc(N)c(NCCCN3CCOCC3)n2)c(OC)c1OC [CBK063676] | 99.0166 |
| CCCc1[nH]nc(O)c1CCc1ccccc1F [CBK075080] | 92.0169 |
| COc1ncc(-c2cncc(Nc3ccccc3)n2)c(OC)n1 [CBK065282] | 111.624 |
| NC(=O)c1ccc(C(=O)NCC2CN3CCCN2CC3)cc1 (stereo not shown) [CBK304143] | 38.6574 |
| O=C(CCn1c(=O)oc2ccccc21)Nc1ccc(S(=O)(=O)N2CCCCC2)cc1 [CBK268365] | 119.029 |

| Structure (SMILES) | % of control remaining |
| --- | --- |
| CN(C)CCN(Cc1cccnc1)C(=O)Cc1ccc2c(c1)CCC2 [CBK282770] | 90.3833 |
| COc1cc(OC)c2c(c1)OC1(CCN(C(=O)C3CCCO3)CC1)CC2=O (stereo not shown) [CBK156476] | 79.8862 |
| COc1ccccc1CN(CC1CCNCC1)C(=O)Nc1c(C)noc1C [CBK049739] | 75.5714 |
| Cc1cc(OCC(=O)NCc2cccnc2)cc(C)c1Cl [CBK263658] | 104.328 |
| O=C(NC1CC2(CCCC2)Oc2ccccc21)C1CCCO1 (stereo not shown) [CBK282420] | 81.1464 |
| O=C(C1CCCC1)N1CCC(c2nnc(-c3ccsc3)o2)CC1 [CBK283379] | 103.102 |
| O=C(O)c1cc(NC(=O)c2ccc(Oc3ccc([N+](=O)[O-])cc3)cc2)cc(C(=O)O)c1 [CBK261188] | 97.1047 |
| O=C(Nc1ncnc2c1[nH]c(=O)n2C1CC(O)C(CO)O1)c1ccccc1 (stereo not shown) [CBK201250] | 104.385 |
| Cc1cc(CN(C)Cc2ccc(N3CCCC3)c(F)c2)n[nH]1 [CBK281953] | 81.3225 |
| Cc1cc(N2CCN(c3ccccc3)CC2)nc(-c2ccccc2O)n1 [CBK116405] | 86.8684 |
| Clc1ccc(COc2ccccc2OCc2ccccc2)s1 [CBK002766] | 80.0767 |
| Cc1nc2n(n1)CCN(C(=O)Cc1c(C)[nH]c3ccc(F)cc13)C2 [CBK284355] | 74.4248 |
| CN1CCN(C(=O)c2ccsc2NS(=O)(=O)c2ccc(-c3ccccc3)cc2)CC1 [CBK042274] | 85.5951 |
| O=C(Cn1nnc(-c2ccc3c(c2)OCO3)n1)Nc1ccccc1C(=O)O [CBK268025] | 91.3916 |
| COc1cc(CNC(=O)N2CCC(C(=O)O)CC2)cc(OC)c1OC [CBK161401] | 64.5139 |
| Cc1ccc(S(=O)(=O)Nc2nc(C)c(C(=O)N3CCN(C)CC3)s2)cc1 [CBK045812] | 79.4487 |
| O=c1[nH]c(=O)c2cc(S(=O)(=O)N3CCN(c4ccccn4)CC3)ccc2[nH]1 [CBK286379] | 93.039 |
| CCc1ccccc1NC(=S)Nc1cccc(C)n1 [CBK288415] | 68.1686 |
| CCOc1ccc(Nc2nc(-c3ccc(F)cc3)c(CC(=O)O)s2)cc1 [CBK296064] | 111.135 |
| NC(=O)CN1C(=O)[C@@H]2CCCN2C(=O)c2ccccc21 [CBK283090] | 76.7932 |
| COCCNCc1ccc(OCc2ccccc2)cc1 [CBK270133C] | 84.9977 |
| O=S(=O)(c1ccccc1Br)N1CCOCC1 [CBK062404] | 75.0662 |
| CCCn1c(SCC(=O)Nc2scc(-c3cccs3)c2C(=O)OCC)n[nH]c1=O [CBK296967] | 74.8231 |
| N#Cc1ccc(CNC2(Cc3cc(-c4ccc(F)cc4)on3)COC2)cc1 [CBK289653] | 117.35 |
| Cc1oc(NC(=O)CN2CCN(c3ccc(F)cc3)CC2)c(C#N)c1C [CBK305907] | 82.1945 |
| O=C(NC1CC1)[C@H]1CN2CCC1C[C@@H]2Cn1cc(CC2CCCCC2)nn1 (stereo partly shown) [CBK288739] | 94.5109 |
